In publication PMC4336329 (PLoS ONE, 2015):
The whole screen tested about 310,000 compounds, of which about 2,200 (0.71%) showed an effect of 50% or more. Effects have a minus sign here. The list shows a part of the results.

biological target: human ether-à-go-go-related gene (hERG) potassium channel (human, UniProt Q12809); experiment: primary screen, population patch clamp on CHO cells stably expressing hERG
Sequence (Q12809 whole entry, looked up): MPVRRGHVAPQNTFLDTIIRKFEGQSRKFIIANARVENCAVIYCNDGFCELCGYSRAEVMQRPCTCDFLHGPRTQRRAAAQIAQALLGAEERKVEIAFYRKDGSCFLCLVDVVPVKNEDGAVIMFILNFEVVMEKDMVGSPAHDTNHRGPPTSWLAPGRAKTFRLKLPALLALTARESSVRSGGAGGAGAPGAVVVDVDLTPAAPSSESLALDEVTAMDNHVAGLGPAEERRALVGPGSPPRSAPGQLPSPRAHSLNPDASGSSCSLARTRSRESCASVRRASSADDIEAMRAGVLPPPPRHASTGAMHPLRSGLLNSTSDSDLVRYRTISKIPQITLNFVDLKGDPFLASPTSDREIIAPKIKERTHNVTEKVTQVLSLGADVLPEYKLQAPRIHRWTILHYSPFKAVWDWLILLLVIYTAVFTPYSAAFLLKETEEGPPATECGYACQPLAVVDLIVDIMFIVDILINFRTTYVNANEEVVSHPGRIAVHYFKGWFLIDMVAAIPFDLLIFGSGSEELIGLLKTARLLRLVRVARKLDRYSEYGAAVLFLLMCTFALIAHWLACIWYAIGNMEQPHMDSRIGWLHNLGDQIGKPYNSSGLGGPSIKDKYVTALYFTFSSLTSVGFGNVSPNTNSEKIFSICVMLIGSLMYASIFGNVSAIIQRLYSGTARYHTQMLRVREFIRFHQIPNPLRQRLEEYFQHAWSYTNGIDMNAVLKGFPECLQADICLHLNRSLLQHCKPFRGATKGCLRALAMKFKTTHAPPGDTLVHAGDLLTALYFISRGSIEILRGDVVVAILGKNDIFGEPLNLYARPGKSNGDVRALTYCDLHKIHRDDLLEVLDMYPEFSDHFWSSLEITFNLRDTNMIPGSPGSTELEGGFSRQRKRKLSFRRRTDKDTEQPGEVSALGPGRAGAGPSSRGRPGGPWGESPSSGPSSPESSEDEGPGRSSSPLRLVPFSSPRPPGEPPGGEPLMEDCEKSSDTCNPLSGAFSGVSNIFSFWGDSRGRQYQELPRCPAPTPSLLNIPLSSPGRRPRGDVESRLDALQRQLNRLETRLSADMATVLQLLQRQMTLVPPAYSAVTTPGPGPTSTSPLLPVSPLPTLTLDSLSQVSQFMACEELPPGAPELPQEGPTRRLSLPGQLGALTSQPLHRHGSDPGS

SMILES | hERG current change (%, negative = inhibition) at 1uM [%]
O=C(CN1C(=O)c2ccccc2C1=O)Nc1ccc(N2CCOCC2)cc1 | 2.07
COc1ccc(-c2cc(C(=O)Nc3ccc4c(c3)OCO4)no2)cc1OC | -7.17
CCn1c(=O)n(-c2ccc(Cl)cc2)c(=O)c2c3c(sc21)COC(C)(C)C3 | 11.2
Cc1ccsc1C(=O)OCC(=O)Nc1cccc(F)c1 | 9.41
O=C(Nc1cccc2ccccc12)/C(=C\c1cccc([N+](=O)[O-])c1)NC(=O)c1cccs1 | -67.7
CC(C)C(=O)N1CCN(c2ccccc2NC(=O)c2cccc(Cl)c2)CC1 | -24.6
O=C1NC(=O)/C(=C/c2cccc([N+](=O)[O-])c2)N1 | 10
CCN1CCN(c2nc3c(c(=O)[nH]c(=O)n3C)n2Cc2ccccc2)CC1 | 1.8
O=C(CSc1nc2ccccc2c(=O)n1-c1ccc(SC(F)F)cc1)Nc1ccc(N2CCOCC2)cc1 | 16.7
O=C(COC(=O)c1ccc(Br)cc1)Nc1cccnc1Cl | 8.98
CC(=O)C[C@H]1c2cc(C(F)(F)F)ccc2S(=O)(=O)N1c1ccc(N(C)C)cc1 | 3.16
CC(=O)c1ccc(OCCCCOc2ccc(C(C)=O)cc2)cc1 | 14.8
COc1ccc(N(CC(=O)N2CCN(c3ccc(F)cc3)CC2)S(=O)(=O)c2c(C)n[nH]c2C)cc1 | -18.5
Cl.O=C(/C=C/c1ccccc1)Nc1ccc(N2CCCCC2)cc1 | 11.3
CCN1CCN(c2c(C=O)c(Cl)nc3ccc(OC)cc23)CC1 | -14.9
CC(C)(C)C(=O)NC(=S)Nc1sc2c(c1C(N)=O)CCC2 | 11
Nc1nnc(SCC(=O)Nc2ccc(F)c(Cl)c2)n1-c1ccccc1 | -46.3
COCc1cc(C)n(CC(=O)Nc2cccc(C)c2)c(=O)c1C#N | 7.55
COc1ccc(C(CNC(=O)c2oc3cc(Br)ccc3c2C)N2CCCCC2)cc1 (stereo not shown) | 10.9
O=c1ccc2c([nH]1)CCCCCCCCCC2 | 15.6
COc1ccc(CC(=O)Nc2cc(S(=O)(=O)N3CCOCC3)ccc2N2CCOCC2)cc1 | 8.1
O=C(COC(=O)c1ccc(O)cc1)Nc1ccc(N2CCCCC2)cc1 | 6.91

SMILES | hERG current change (%, negative = inhibition) at 1uM [%]
CNC(=O)c1c(NC(=O)c2cccc(N3C(=O)CCC3=O)c2)sc2c1CCCC2 | 11.6
COc1cc2cc(Oc3ccc4ccc(=O)oc4c3)c(=O)oc2cc1OC1OC(COC(=O)CC(C)(O)CC(=O)O)C(O)C(O)C1O (stereo not shown) | 17
C#CCn1c(=NC(=O)c2ccc(S(=O)(=O)N3CCc4ccccc4C3)cc2)sc2cc(S(N)(=O)=O)ccc21 | 10.6
COc1cccc(COC(=O)C2CCN(C(=O)c3ccccc3C)CC2)c1OC | 12.2
O=C1NC(c2cc3ccccc3nc2Cl)Nc2ccccc21 (stereo not shown) | 2.51
CCOc1ccc(N(CC(=O)NC2CCCC2)C(=O)c2ccc(C)s2)cc1 | 8.88
C=CCC(NCc1ccco1)c1ccc(OC)c(OC)c1.Cl (stereo not shown) | 11
O=C(NCc1ccccc1)N(Cc1nc2ccccc2c(=O)[nH]1)C1CCCC1 | 7.46
C#CC[N+](C)(C)CCCCCCCCC.[Br-] | -10.2
CCCCOc1ccc(C(=O)OC2CC(C)N(C)CC2C)cc1 (stereo not shown) | 4.64
O=[N+]([O-])c1nn(-c2ccc3c(c2)OCCO3)n(O)c1=NC1CCCC1 | 18.3
C/C(N)=C(/C#N)C(=O)CSc1nnc(COc2cc(C)ccc2C)o1 | 16.1
CCOC(=O)c1cc(-c2nnc(SCC(=O)Nc3ccc(F)cc3)o2)c(C)nc1C | 5.8
Cc1nn(C)cc1CN(C)C(=O)c1nn2c(c1Cl)NC(c1cccs1)CC2C(F)(F)F (stereo not shown) | -8.45
CCN(CC)S(=O)(=O)c1ccc2c(c1)c(=O)c(C(=O)NCc1ccc3c(c1)OCO3)cn2C | 7.75
CSc1cc(-c2ccc(Cl)cc2)n(Cc2ccccc2)c(=O)c1C#N | 9.83
Cc1nnc(NC(=O)CSc2nnc(Cc3ccccc3)n2Cc2ccccc2)s1 | 4.59
O=C(CCCCCn1c(=O)[nH]c2ccccc2c1=O)NCCCN1CCN(c2ccccc2F)CC1 | -84.6
CCC(C)[C@@H](C(=O)Nc1ccc(OC)c(OC)c1)N1Cc2ccccc2C1=O (stereo partly shown) | 1.73
CC(C)NCC(=O)NC12CC3CC(CC(C3)C1)C2.Cl | 13.8
O=C(Oc1cccc(OC(=O)c2ccco2)c1)c1ccco1 | 17.6
